# Experimental data as given in PubChem BioAssay (NCI).
#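 Test compounds were applied to cells in 96-well plates for 48 hours at 5 doses. Abbreviation: GI50, concentration required for 50% inhibition of growth. TGI: concentration producing complete growth inhibition.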
# Tested on: NCI-H322M lung
# Assay: NCI-60 cell line screen, 48 h
Structure (SMILES),TGI,GI50
c1ccc(-c2nnc(-c3nn(-c4ccccc4)c4nc5ccccc5nc34)o2)cc1,> 100 µM,–
O=C(O[C@H](/C=C/c1ccccc1)P1(=O)N(Cc2ccccc2)[C@@H]2CCCC[C@H]2N1Cc1ccccc1)c1ccccc1,> 100 µM,–
Cc1ccc(C(=O)Nc2ccc(CP(=O)(O)O)cc2)cc1NC(=O)c1cccc(NC(=O)Nc2cccc(C(=O)Nc3cc(C(=O)Nc4ccc(CP(=O)(O)O)cc4)ccc3C)c2)c1,> 100 µM,–
Cc1nc(Cl)c(CBr)c(Cl)n1,3.77 µM,–
CC1=CC=CC(C)(C)CC1(O[Si](C)(C)C)C(F)(F)F (centres undefined),> 100 µM,–
COc1cc2c(cc1OC)C(=O)/C(=C/c1cc(C)c(O)c(C)c1)C2,> 100 µM,–
CCOP(=O)(OCC)/C(F)=C/c1ccccc1,> 100 µM,–
O=C1C(Cl)N(c2ccccc2)C1c1c[nH]c2ccccc12 (centres undefined),> 100 µM,–
Cc1nc2ccc([N+](=O)[O-])cc2c(=O)n1C(=S)Nc1cccc(Cl)c1,81.3 µM,–
CCOC(=O)c1cc(-c2ccc([N+](=O)[O-])cc2)n(-c2ccc(C(=O)O)c(O)c2)c1C,25.9 µM,12.7 µM
CC(C)c1c(P(=O)(c2ccccc2)c2ccccc2)n(C)c2ccccc12,> 100 µM,–
CC(=O)c1ccc(N(/C=C/C(=O)C(F)(F)F)CC(=O)c2ccc(Cl)c(Cl)c2)cc1,30.9 µM,16.5 µM
Brc1ccc2c3c1[C@@H]1O[C@@H]1c1cccc(c1-3)[C@@H]1O[C@H]21,> 73.7 µM,–
CC(C)=CC1C(C(=O)O)C1(C)C (centres undefined),> 750 µM,–
O=[N+]([O-])c1ccc(NSc2ccccc2)cc1,> 100 µM,–
CCN(CCCN(CC)C(=O)N[C@@H](Cc1ccccc1)C(=O)NC)C(=O)N[C@@H](Cc1ccccc1)C(=O)NC,> 100 µM,–
COc1ccc(CN2CCCC(C(=O)c3ccc(C(F)(F)F)cc3)C2)c(O)c1 (centres undefined),> 100 µM,57 µM
COC(c1ccc(C(C)(C)C)cc1)(c1ccc(C(C)(C)C)cc1)c1cc(C(O)(c2cc(C(OC)(c3ccc(C(C)(C)C)cc3)c3ccc(C(C)(C)C)cc3)c(C)cc2C)c2cc(C(OC)(c3ccc(C(C)(C)C)cc3)c3ccc(C(C)(C)C)cc3)c(C)cc2C)c(C)cc1C,> 100 µM,–
O=C(Nc1ccccc1[N+](=O)[O-])c1ccccc1,> 100 µM,–
CCN(CC)CCCn1c(=O)c2cccnc2n2c3c(=O)n(C)c(=O)n(C)c3nc12,> 100 µM,–
C[C@]12CCC(=O)C=C1CC[C@@H]1C2CC[C@]2(C)NC(=O)C(C#N)CC12 (some centres undefined),> 100 µM,–

Structure (SMILES),TGI,GI50
CN(C)CCNc1nc2ccccc2c2[nH]c3ccccc3c12,1.06 µM,0.234 µM
CCOC(=O)CCCO,> 100 µM,–
COc1cc2c(NCCCCCCO[N+](=O)[O-])ncnc2c(OC)c1OC,75.1 µM,–
O=C(O)Cc1ccc2nc(COC(=O)c3ccccc3)sc2c1,> 100 µM,–
C=CC/C(C(=O)OC)=C(/C(=O)OC)N(CCC)CCC,> 100 µM,–
CC1CC(C#N)=C2NCCCCN2C1=O (centres undefined),> 100 µM,–
CCOC(=O)C1C(=O)CC(O)(c2ccccc2)C(C(=O)OCC)C1c1ccc(OC)cc1 (centres undefined),> 100 µM,–
CC(=O)Nc1ccc(Cl)c(Cl)c1,> 100 µM,–
Cc1cc(C)c2c(n1)S(=O)(=O)N(CCCN1CCN(c3cccc(C(F)(F)F)c3)CC1)/C(=C(\O)c1ccc(Cl)cc1)C2=O,18.3 µM,–
O=C(O/N=C1/CCC/C1=C\c1ccccc1)c1ccc([N+](=O)[O-])cc1,> 100 µM,–
CC(=O)/C=C/c1cccc(N=S)c1,> 100 µM,–
Cc1c(N2C(=O)/C(=C\c3ccccc3O)N=C2c2ccccc2)c(=O)n(-c2ccccc2)n1C,> 100 µM,97.3 µM
O=C1NC(=O)C2C(=O)NC(=O)C1C2(c1ccccc1)c1ccc(Cl)cc1 (centres undefined),> 100 µM,–
O=S(=O)(O)C(O)/C=C/c1ccccc1 (centres undefined),> 100 µM,–
O=C1CC[C@H]2CNC(=O)C[C@H]2C1,> 100 µM,–
NC1(CCCCCCCCCCC(=O)O)CNCCNCCNCCNC1,> 100 µM,–
CCn1c(=O)c2c3cc(O)ccc3oc2c2ccc(O)cc21,> 100 µM,–
O=C1C(Br)=Cc2c(Cl)sc(Cl)c21,38.5 µM,–
Cn1c(-c2nonc2N)nc2cnccc21,> 25 µM,> 25 µM
Cc1c(C(=O)/C=C/c2cccc3ccccc23)[n+](=O)c2ccccc2n1[O-],30.2 µM,–
O=C(Cc1ccc(/C=C/C(=O)c2ncc[nH]2)cc1)Nc1ccc(Cl)cc1,10.7 µM,4 µM
